In US20190359693A1 one finds average neutralization titer and Average neutralization titers data, which are given here for six molecules.

What all share (experiment): cell-based or functional assay
In assay [1] the target is hemagglutinin (HA) of influenza virus H1N1 A/New Caledonia/20/99 (influenza A virus).
Assay [2] deals with hemagglutinin (HA) of influenza virus H3N2 A/Brisbane/10/07 (influenza A virus).
Assay [3] addresses hemagglutinin (HA) of influenza virus H3N2 A/Wisconsin/67/05 (influenza A virus).
Assay [4] concerns the target hemagglutinin (HA) of influenza virus B/Florida/04/06 (Yamagata) (influenza B virus).
Assay [5] has as its target hemagglutinin (HA) of influenza virus H5N1 A/Vietnam/1194/04 (influenza A virus).
Assay [6] addresses hemagglutinin (HA) of influenza B/Florida/04/06 (Yamagata) (influenza B virus).
Assay [7] has as its target hemagglutinin (HA) of influenza A/Northern Pintail/MPC2085/07 (H11N9) (influenza A virus).
In assay [8] the target is hemagglutinin (HA) of influenza A/Vietnam/1194/04 (H5N1) (influenza A virus).
For assay [9], the target named is hemagglutinin (HA) of influenza A/WF/HK/MPA892/06 (H4) (influenza A virus).
Assay [10] has as its target hemagglutinin (HA) of influenza A/New Caledonia/20/99 (H1N1) (influenza A virus).
In assay [11] the target is hemagglutinin (HA) of influenza A/Shanghai/2/13 (H7N9) (influenza A virus).
In assay [12] the target is hemagglutinin (HA) of influenza B/Malaysia/2506/04 (Victoria) (influenza B virus).
The target in assay [13] is hemagglutinin (HA) of influenza A/Wisconsin/67/05 (H3N2) (influenza A virus).
Assay [14] addresses hemagglutinin (HA) of influenza A/Eurasian Wigeon/MPH571/08 (H8N4) (influenza A virus).
Assay [15] addresses hemagglutinin (HA) of influenza A/California/07/09 (H1N1) (influenza A virus).
The target in assay [16] is hemagglutinin (HA) of influenza A/Anhui/1/13 (H7N9) (influenza A virus).
Assay [17] concerns the target hemagglutinin (HA) of influenza B/Harbin/7/94 (Yamagata) (influenza B virus).
In assay [18] the target is hemagglutinin (HA) of influenza A/Brisbane/10/07 (H3N2) (influenza A virus).
For assay [19], the target named is hemagglutinin (HA) of influenza A/NIBRG/60 (A/mallard/Netherlands/12/00) (H7N3) (influenza A virus).

B1: MD2615 (Fc fusion)
chain: EVQLVESGGGLVQPGGSLRLSCAVSISIFDIYAMDWYRQAPGKQRDLVATSFRDGSTNYADSVKGRFTISRDNAKNTLYLQMNSLKPEDTAVYLCHVSLYRDPLGVAGGMGVYWGKGALVTVSSAAA[gap - human IgG1 Fc]GGGGSGGGGSEVQLVESGGGLVQPGGSLRLSCAATGFTLENKAIGWFRQTPGSEREGVLCISKSGSWTYYTDSMRGRFTISRDNAENTVYLQMDSLKPEDTAVYYCATTTAGGGLCWDGTTFSRLASSWGQGTQVTVSS
Turning to B1, the average neutralization titer in [1] turned out to be 12.2 nM; in assay [2], 26.8 nM; in assay [3], 39.5 nM; in [4] it was 165 nM; in assay [5], 14.5 nM.

B2: MD2644 (Fc fusion)
chain 1: EVQLVESGGGLVQPGGSLRLSCAVSISIFDIYAMDWYRQAPGKQRDLVATSFRDGSTNYADSVKGRFTISRDNAKNTLYLQMNSLKPEDTAVYLCHVSLYRDPLGVAGGMGVYWGKGALVTVSSGGGGSGGGGSEVQLVESGGGLVQPGGSLRLSCAVSISIFDIYAMDWYRQAPGKQRDLVATSFRDGSTNYADSVKGRFTISRDNAKNTLYLQMNSLKPEDTAVYLCHVSLYRDPLGVAGGMGVYWGKGALVTVSSGGGGSGGGGSEVQLVESGGGLVQAGGSLKLSCAASGRTYAMGWFRQAPGKEREFVAHINALGTRTYYSDSVKGRFTISRDNAKNTEYLEMNNLKPEDTAVYYCTAQGQWRAAPVAVAAEYEFWGQGTQVTVSS[gap - human IgG1 Fc with K409R (EU numbers)]
chain 2: EVQLVESGGGLVQPGGSLKLSCAASGFTFSTSWMYWLRQAPGKGLEWVSVINTDGGTYYADSVKDRFTISRDNAKDTLYLQMSSLKSEDTAVYYCAKDWGGPEPTRGQGTQVTVSSGGGGSGGGGSEVQLVESGGGLVQPGGSLRLSCAATGFTLENKAIGWFRQTPGSEREGVLCISKSGSWTYYTDSMRGRFTISRDNAENTVYLQMDSLKPEDTAVYYCATTTAGGGLCWDGTTFSRLASSWGQGTQVTVSS[gap - human IgG1 Fc with changes]
As to B2, the Average neutralization titers was found to be 2.8 nM in [6]; 13.1 nM in [7]; 14.8 nM in [8]; 6.6 nM in assay [9]; 7.4 nM in [10]; 60.6 nM in assay [11]. In addition, the Average neutralization titers in assay [12] was 7.4 nM; in [13], 20.9 nM; in [14], 9 nM; in assay [15], 2.3 nM; in assay [16] it was 144 nM; in [17], 4.4 nM.

B3: MD2646 (Fc fusion)
chain 1: EVQLVESGGGLVQAGGSLKLSCAASGRTYAMGWFRQAPGKEREFVAHINALGTRTYYSDSVKGRFTISRDNAKNTEYLEMNNLKPEDTAVYYCTAQGQWRAAPVAVAAEYEFWGQGTQVTVSSGGGGSGGGGSEVQLVESGGGLVQPGGSLRLSCAVSISIFDIYAMDWYRQAPGKQRDLVATSFRDGSTNYADSVKGRFTISRDNAKNTLYLQMNSLKPEDTAVYLCHVSLYRDPLGVAGGMGVYWGKGALVTVSSGGGGSGGGGSEVQLVESGGGLVQPGGSLRLSCAVSISIFDIYAMDWYRQAPGKQRDLVATSFRDGSTNYADSVKGRFTISRDNAKNTLYLQMNSLKPEDTAVYLCHVSLYRDPLGVAGGMGVYWGKGALVTVSS[gap - human IgG1 Fc with K409R (EU numbers)]
chain 2: EVQLVESGGGLVQPGGSLKLSCAASGFTFSTSWMYWLRQAPGKGLEWVSVINTDGGTYYADSVKDRFTISRDNAKDTLYLQMSSLKSEDTAVYYCAKDWGGPEPTRGQGTQVTVSSGGGGSGGGGSEVQLVESGGGLVQPGGSLRLSCAATGFTLENKAIGWFRQTPGSEREGVLCISKSGSWTYYTDSMRGRFTISRDNAENTVYLQMDSLKPEDTAVYYCATTTAGGGLCWDGTTFSRLASSWGQGTQVTVSS[gap - human IgG1 Fc with changes]
In the case of B3, the Average neutralization titers in [6] was 3.3 nM; in assay [8], 14.8 nM; in assay [9], 3.3 nM; in assay [10] it was 14.8 nM; in [11], 61.3 nM; in assay [12], 7.4 nM. For the same molecule, the Average neutralization titers was found to be 29.6 nM in assay [13], 1.6 nM in assay [15], 226 nM in assay [16] and 3.7 nM in [17].

B4: MD2622 (Fc fusion)
chain 1: EVQLVESGGGLVQPGGSLRLSCAVSISIFDIYAMDWYRQAPGKQRDLVATSFRDGSTNYADSVKGRFTISRDNAKNTLYLQMNSLKPEDTAVYLCHVSLYRDPLGVAGGMGVYWGKGALVTVSSGGGGSGGGGSEVQLVESGGGLVQAGGSLKLSCAASGRTYAMGWFRQAPGKEREFVAHINALGTRTYYSDSVKGRFTISRDNAKNTEYLEMNNLKPEDTAVYYCTAQGQWRAAPVAVAAEYEFWGQGTQVTVSSAAA[gap - human IgG1 Fc with K409R (EU numbers)]
chain 2: EVQLVESGGGLVQPGGSLRLSCAATGFTLENKAIGWFRQTPGSEREGVLCISKSGSWTYYTDSMRGRFTISRDNAENTVYLQMDSLKPEDTAVYYCATTTAGGGLCWDGTTFSRLASSWGQGTQVTVSSAAA[gap - human IgG1 Fc with changes]
Consider B4, for which the Average neutralization titers in assay [13], in assay [18] and in assay [19] was 28.3 nM throughout.

B5: MD2633 (Fc fusion)
chain: EVQLVESGGGLVQAGGSLKLSCAASGRTYAMGWFRQAPGKEREFVAHINALGTRTYYSDSVKGRFTISRDNAKNTEYLEMNNLKPEDTAVYYCTAQGQWRAAPVAVAAEYEFWGQGTQVTVSSGGGGSGGGGSEVQLVESGGGLVQPGGSLRLSCAVSISIFDIYAMDWYRQAPGKQRDLVATSFRDGSTNYADSVKGRFTISRDNAKNTLYLQMNSLKPEDTAVYLCHVSLYRDPLGVAGGMGVYWGKGALVTVSSGGGGSGGGGSEVQLVESGGGLVQPGGSLRLSCAVSISIFDIYAMDWYRQAPGKQRDLVATSFRDGSTNYADSVKGRFTISRDNAKNTLYLQMNSLKPEDTAVYLCHVSLYRDPLGVAGGMGVYWGKGALVTVSS[gap - human IgG1 Fc]GGGGSGGGGSEVQLVESGGGLVQPGGSLKLSCAASGFTFSTSWMYWLRQAPGKGLEWVSVINTDGGTYYADSVKDRFTISRDNAKDTLYLQMSSLKSEDTAVYYCAKDWGGPEPTRGQGTQVTVSSGGGGSGGGGSEVQLVESGGGLVQPGGSLRLSCAATGFTLENKAIGWFRQTPGSEREGVLCISKSGSWTYYTDSMRGRFTISRDNAENTVYLQMDSLKPEDTAVYYCATTTAGGGLCWDGTTFSRLASSWGQGTQVTVSS
Turning to B5, the Average neutralization titers in [6] turned out to be 2.1 nM; in [8] it was 6.6 nM; in assay [9] it was 2.5 nM; in assay [10], 3.9 nM; in assay [11], 36.1 nM; in assay [12], 4.7 nM. Further, the Average neutralization titers in [13] came to 15.7 nM; in [15] it was 1.2 nM; in assay [16], 128 nM; in assay [17], 1 nM.

B6: MD2631 (Fc fusion)
chain: EVQLVESGGGLVQPGGSLRLSCAVSISIFDIYAMDWYRQAPGKQRDLVATSFRDGSTNYADSVKGRFTISRDNAKNTLYLQMNSLKPEDTAVYLCHVSLYRDPLGVAGGMGVYWGKGALVTVSSGGGGSGGGGSEVQLVESGGGLVQPGGSLRLSCAVSISIFDIYAMDWYRQAPGKQRDLVATSFRDGSTNYADSVKGRFTISRDNAKNTLYLQMNSLKPEDTAVYLCHVSLYRDPLGVAGGMGVYWGKGALVTVSSGGGGSGGGGSEVQLVESGGGLVQAGGSLKLSCAASGRTYAMGWFRQAPGKEREFVAHINALGTRTYYSDSVKGRFTISRDNAKNTEYLEMNNLKPEDTAVYYCTAQGQWRAAPVAVAAEYEFWGQGTQVTVSS[gap - human IgG1 Fc]GGGGSGGGGSEVQLVESGGGLVQPGGSLKLSCAASGFTFSTSWMYWLRQAPGKGLEWVSVINTDGGTYYADSVKDRFTISRDNAKDTLYLQMSSLKSEDTAVYYCAKDWGGPEPTRGQGTQVTVSSGGGGSGGGGSEVQLVESGGGLVQPGGSLRLSCAATGFTLENKAIGWFRQTPGSEREGVLCISKSGSWTYYTDSMRGRFTISRDNAENTVYLQMDSLKPEDTAVYYCATTTAGGGLCWDGTTFSRLASSWGQGTQVTVSS
For the molecule B6, the Average neutralization titers turned out to be 1.8 nM in [6]; 13.9 nM in [7]; 9.3 nM in assay [8]; 7 nM in assay [9]; 6.6 nM in assay [10]; 35.3 nM in assay [11]. Also, the Average neutralization titers worked out at 6.6 nM in [12]; 11.1 nM in [13]; 6 nM in assay [14]; 1.5 nM in assay [15]; 54.2 nM in [16]; 2.3 nM in [17].
